Source: paper PMC4336329 (PLoS ONE, 2015)
About 2,200 (0.71%) of roughly 310,000 compounds showed an effect of 50% or more. The effect is printed as a negative number. The list shows a part of the results.

Molecular target: human ether-à-go-go-related gene (hERG) potassium channel (human, UniProt Q12809)
Test: primary screen, population patch clamp on CHO cells stably expressing hERG

Chain of human ether-à-go-go-related gene (hERG) potassium channel (Q12809 whole entry, looked up): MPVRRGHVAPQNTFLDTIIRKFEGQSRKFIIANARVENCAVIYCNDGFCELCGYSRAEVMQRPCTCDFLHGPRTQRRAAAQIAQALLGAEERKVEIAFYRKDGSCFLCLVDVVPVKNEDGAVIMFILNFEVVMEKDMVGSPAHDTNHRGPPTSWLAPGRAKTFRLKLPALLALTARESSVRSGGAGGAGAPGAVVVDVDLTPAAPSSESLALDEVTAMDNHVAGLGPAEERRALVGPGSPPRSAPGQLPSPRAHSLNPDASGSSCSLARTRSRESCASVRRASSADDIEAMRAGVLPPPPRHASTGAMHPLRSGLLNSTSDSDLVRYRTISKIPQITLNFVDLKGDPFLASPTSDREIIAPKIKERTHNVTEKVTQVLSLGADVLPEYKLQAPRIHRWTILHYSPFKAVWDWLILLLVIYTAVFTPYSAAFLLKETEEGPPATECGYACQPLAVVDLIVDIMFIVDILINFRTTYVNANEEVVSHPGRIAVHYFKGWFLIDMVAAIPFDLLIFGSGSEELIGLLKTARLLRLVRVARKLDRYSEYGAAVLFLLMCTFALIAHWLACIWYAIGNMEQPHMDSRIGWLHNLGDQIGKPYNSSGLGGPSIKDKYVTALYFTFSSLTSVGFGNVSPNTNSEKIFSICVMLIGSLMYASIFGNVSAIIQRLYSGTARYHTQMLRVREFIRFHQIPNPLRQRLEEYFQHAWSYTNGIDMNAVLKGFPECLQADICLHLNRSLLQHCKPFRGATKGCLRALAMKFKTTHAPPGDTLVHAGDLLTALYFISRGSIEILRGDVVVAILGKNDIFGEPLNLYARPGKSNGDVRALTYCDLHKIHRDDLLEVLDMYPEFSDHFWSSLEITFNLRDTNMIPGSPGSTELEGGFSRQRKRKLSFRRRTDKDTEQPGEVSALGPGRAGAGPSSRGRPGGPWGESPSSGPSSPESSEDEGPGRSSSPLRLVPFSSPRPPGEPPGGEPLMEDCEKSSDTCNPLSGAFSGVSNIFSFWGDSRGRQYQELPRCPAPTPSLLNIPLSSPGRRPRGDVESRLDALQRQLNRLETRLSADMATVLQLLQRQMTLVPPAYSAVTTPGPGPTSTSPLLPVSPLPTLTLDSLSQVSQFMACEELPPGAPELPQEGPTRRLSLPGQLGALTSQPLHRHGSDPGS

In order of rising “hERG current change (%, negative = inhibition) at 1uM” value:
1. CSc1ccc(C(=O)C2CCCN(Cc3cnc(SC)nc3)C2)cc1 (stereo not shown)  -33.7%
2. COc1ccc(C(CNC(=O)Nc2cccc(C)c2)N2CCN(C)CC2)cc1 (stereo not shown)  -17.3%
3. COc1cc(CNCCSc2nnnn2C)cc(Br)c1OCc1ccccc1.Cl  -17.1%
4. CCOc1ccccc1C1C(C#N)=C(SCC(=O)OC)NC(=O)C1C(=O)OC (stereo not shown)  -11.2%
5. CCN1CC=C2C(C1)C(c1ccc(Cl)s1)C(C#N)=C(N)C2(C#N)C#N (stereo not shown)  -9.24%
6. Cc1cc(NC(=O)CCN2C(=O)C3C4CCC(C4)C3C2=O)c(C)cc1Br (stereo not shown)  -7.47%
7. CCc1ccc(NC(=S)NC2CCN(Cc3ccccc3)CC2)cc1  -6.54%
8. Cc1ccc(NC(=O)c2ccc(Cl)c(S(=O)(=O)N3CCCCC3)c2)nc1  -4.65%
9. Cc1ccc(S(=O)(=O)/N=C(\c2ccc(Cl)cc2)N2CCOCC2)cc1  -2.85%
10. O=C(NN1CCOCC1)c1ccc(Cl)s1  -2.44%
11. CC(C(=O)NC1=NCCS1)(C(F)(F)F)C(F)(F)F  -2.26%
12. COC(=O)c1ccc(CSc2nc3c(c(=O)n2-c2ccccc2)SCC3)o1  -2.1%
13. CC(=O)NC12CC3CC(C1)CC(C(=O)N(C)Cc1cccc(Cl)c1Cl)(C3)C2  -0.167%
14. Cc1nc2ccccc2n1CCOc1ccc(F)cc1  0.306%
15. S=C(NCc1cccs1)Nc1cccc(Cl)c1  0.718%
16. O=C(COc1ccccc1)Nc1nonc1NC(=O)COc1ccccc1  1.64%
17. CCN(CC)S(=O)(=O)c1ccc(N=Cc2c(C)c(C#N)c(=O)n(C)c2O)cc1  2.14%
18. COCCNC(=S)c1ccc(OC)cc1  2.18%
19. Nc1ncnc(N2CCOCC2)c1N  2.39%
20. CCC1=NN(C(=O)Cc2ccc(OC)cc2)C(O)(C(F)(F)F)C1 (stereo not shown)  2.59%
21. CCN(CC(=O)Nc1ccc2c(c1)OCCO2)C(=O)CSCC(=O)Nc1ccc(C)cc1  2.62%
22. COc1ccc(CCNC(=O)C2CCN(S(=O)(=O)c3ccc(OC)cc3)CC2)cc1  2.69%
23. COc1ccc(C(CNc2ccc(C(F)(F)F)cn2)N(C)C)cc1OC (stereo not shown)  3.44%
24. O=S(=O)(Nc1ccccc1Cl)c1cccc2nsnc12  4.1%
25. Cc1cc(C)n(-c2nc(NCCN(C)C)c3c4c(sc3n2)CCCC4)n1  4.17%
26. CCNc1nc(NC(C)C)nc(N(C#N)CCOc2ccccc2)n1  4.54%
27. CSCCC(NC(=O)c1ccccc1Cl)C(=O)N1CCC1 (stereo not shown)  4.59%
28. CCCn1c(=O)c(C(=O)Nc2ccccc2)c(O)c2ccccc21  4.76%
29. NC(=O)NCc1ccc(F)cc1  4.8%
30. O=C(N/N=C\c1c(O)ccc2ccccc12)c1ccc(S(=O)(=O)N2CCCCC2)cc1  4.84%
31. Nc1nc(SCC(=O)N2CCN(c3ccc(F)cc3)CC2)n[nH]1  6.06%
32. Cc1ccc(-c2cc(C(F)F)nc(NCC3CCCO3)n2)cc1 (stereo not shown)  6.46%
33. COc1ccc(Br)cc1S(=O)(=O)Nc1ccc(Cl)cn1  6.89%
34. CC1CCCCN1C(=O)CSc1nnc(-c2ccco2)o1 (stereo not shown)  7.55%
35. CCOC(=O)CNC(=O)N1CCCC(N(C)CCc2ccccc2)C1 (stereo not shown)  7.93%
36. O=C(NNc1ccccc1)C(=O)N1CCCCC1  8.08%
37. Cn1c(SCc2ccc(Br)cc2)nnc1-c1ccccn1  8.1%
38. Cc1ccc(C(C[N+](=O)[O-])c2c(C)cc3ccccn23)cc1 (stereo not shown)  8.57%
39. CCCNC(=O)c1ccc(C2SCC(=O)N2Cc2ccccc2)cc1 (stereo not shown)  8.86%
40. COCCNC(=O)[C@H](C)[C@H]1C[C@]1(C)[C@H](NC(=O)OCc1ccccc1)c1ccccc1  8.88%
41. Cc1cccc(N2C(=O)CC(Cn3nc(C)cc3C)C2=O)c1 (stereo not shown)  8.98%
42. CCOc1ccc(C2NC(=O)c3n[nH]c(C)c32)cc1 (stereo not shown)  9.09%
43. COc1ccc(C)cc1NC(=O)C1CCN(S(=O)(=O)c2ccccc2)CC1  9.5%
44. COc1ccc(N2C(=O)S[C@@H]3CS(=O)(=O)C[C@@H]32)cc1  9.63%
45. CCCc1ccc(-c2ccc(-c3noc(-c4ccncc4)n3)cc2)nc1  9.72%
46. COc1ccc(Cl)cc1NC(=O)COC(=O)C1CCCCC1  9.75%
47. Nc1nc(-c2ccc3c(c2)CCCC3)cs1  9.84%
48. COc1ccc(/C=N/NC2=NCCCCC2)c(OC)c1.Cl  9.91%
49. CC(C)(C)c1ccc(C(=O)NNC(=O)C(=O)N2CCCCC2)cc1  10.3%
50. COC(=O)NC(NC(=S)Nc1ccc([N+](=O)[O-])cc1)C(Cl)(Cl)Cl (stereo not shown)  10.3%
51. COc1cccc(-n2ccnc2SCC(=O)Nc2cc(OC)ccc2OC)c1  10.4%
52. CCc1cccc(C)c1N(C(=O)Cn1c(CO)nc2ccccc21)C(C)COC (stereo not shown)  10.7%
53. CCN(c1ccccc1)S(=O)(=O)c1ccc(NC(=S)NC(=O)c2cccs2)cc1  10.8%
54. O=C(N/N=C/c1ccc[nH]1)c1ccccc1[N+](=O)[O-]  11.4%
55. Cc1ccc(S(=O)(=O)NC2=NCN(C(C)C)CN2)cc1  11.5%
56. Cc1nc2c(-c3ccc(F)cc3)c(C)nn2c(N2CCOCC2)c1C  11.8%
57. NC(=O)c1ccc(N2CCCCC2)c(N2C(=O)C3CC=CCC3C2=O)c1 (stereo not shown)  11.9%
58. COc1ccc(S(=O)(=O)NCCSCc2ccco2)cc1  12%
59. CC(C)CNC(=O)C(=O)Nc1ccc2c(c1)N(S(=O)(=O)c1cccs1)CCC2  12%
60. Cc1cc(NC(=O)CCC(=O)N(CC(=O)NC2CCCC2)c2ccccc2)no1  12.3%
61. Cc1ccc(NC(=S)N(CCN2CCOCC2)Cc2ccccc2F)cc1Cl  12.3%
62. COc1ccc(NC(=O)Cn2nc(C)c([N+](=O)[O-])c2C)cn1  12.3%
63. CCN1CC(CN(C)Cc2nc(-c3cccs3)no2)CC1=O (stereo not shown)  12.6%
64. Cc1c(Cl)cccc1NC(=O)CSc1nc2c(c(=O)[nH]1)CCCC2  12.7%
65. CSc1nc2cc3c(cc2n1C(=O)c1ccc(C)cc1)OCCO3  12.8%
66. CCCc1cc(=O)oc2c3c(c4c(c12)OC(C)(C)C=C4)OC(C)C(C)C3O (stereo not shown)  12.8%
67. CCOC(=O)c1ccc(NC(=O)C2CC(=O)N(c3ccc4c(c3)OCCO4)C2)cc1 (stereo not shown)  12.9%
68. Cc1ccc(S(=O)(=O)N(C)CC(=O)Nc2ccc(C)cn2)cc1  13%
69. CCOC(=O)c1cc(COc2cc(Cl)cc(Cl)c2)on1  13.2%
70. COc1ccc(N=Nc2[nH]c3ccc(C)cc3c2O)cc1  13.5%
71. C=CCSc1nc(N)c(C(=O)Nc2ccccc2C)cc1C(N)=O  13.6%
72. Nc1nonc1C(=O)N/N=C\c1cc2c(cc1Cl)OCO2  13.6%
73. COc1cc(/C=C/C(=O)OCC(=O)NCCc2ccccc2)ccc1OC(F)F  13.8%
74. CCN(CC)C(=O)c1sc2nc(-c3ccncc3)[nH]c(=O)c2c1C  13.9%
75. COc1ccc(CCN(Cc2cccs2)S(=O)(=O)c2ccc(S(=O)(=O)N3CCC(C)CC3)cc2)cc1OC  14.3%
76. O=C(COC(=O)c1sc2cc(Cl)ccc2c1Cl)Nc1ncc(Cl)cc1Cl  14.3%
77. O=c1[nH]c2ccccc2nc1Cc1ccc(Cl)cc1  14.6%
78. CC(=O)Nc1ccc(S(=O)(=O)NC(CC(=O)NCCC2=CCCCC2)C(C)C)cc1 (stereo not shown)  14.6%
79. COC(=O)CSc1[nH]c2ccc(F)cc2c1[N+](=O)[O-]  14.7%
80. COc1ccc(N2CCN(Cc3cc4c(cc3Br)OCCO4)CC2)cc1  14.8%
81. O=S(=O)(CS(=O)(=O)c1ccc(Cl)cc1)c1ccc(Cl)cc1  15.2%
82. CCOc1ccc(C2C(C(=O)c3ccco3)=C(O)C(=O)N2CCN2CCOCC2)cc1OCC (stereo not shown)  15.3%
83. COc1ccc(CN2CCNC(=O)C2CC(=O)NCCN2CCCCC2=O)c(F)c1 (stereo not shown)  15.7%
84. O=C(NC(NC(=S)Nc1c(Cl)cccc1Cl)C(Cl)(Cl)Cl)OCc1ccccc1 (stereo not shown)  16.8%
85. N#Cc1cn(N2CCCCC2)c(=O)[nH]c1=O  16.8%
86. O=C(O)COc1ccc(C(NC(=O)c2c(F)cccc2F)NC(=O)c2c(F)cccc2F)cc1  16.9%
87. O=C(Nc1cccnc1)c1cc(-c2ccc(Cl)c(Cl)c2)on1  17%
88. COc1ccc(CCNC(=O)c2nnn(CC(=O)Nc3ccccc3C)c2N)cc1OC  17.1%
89. COc1ccc(OC)c(NC(=O)Cn2cc(C=O)c3ccccc32)c1  18.4%
90. COc1cccc(NC(=O)CCCNC(=O)Cn2cnc3sc(C)c(C)c3c2=O)c1  19.5%
91. COC(=O)C(C)NC(=O)c1cn(-c2ccccc2OC)c(=O)c2ccccc12 (stereo not shown)  21%
